# Reference: article PMC4336329 (PLoS ONE, 2015)
# Out of some 310,000 compounds screened, about 2,200 (0.71%) showed an effect of 50% or more. The effect is printed as a negative number. Some of the results follow.
# Biological target: human ether-à-go-go-related gene (hERG) potassium channel (human, UniProt Q12809)
# Experiment: primary screen, population patch clamp on CHO cells stably expressing hERG
# Chain of human ether-à-go-go-related gene (hERG) potassium channel (Q12809 whole entry, looked up): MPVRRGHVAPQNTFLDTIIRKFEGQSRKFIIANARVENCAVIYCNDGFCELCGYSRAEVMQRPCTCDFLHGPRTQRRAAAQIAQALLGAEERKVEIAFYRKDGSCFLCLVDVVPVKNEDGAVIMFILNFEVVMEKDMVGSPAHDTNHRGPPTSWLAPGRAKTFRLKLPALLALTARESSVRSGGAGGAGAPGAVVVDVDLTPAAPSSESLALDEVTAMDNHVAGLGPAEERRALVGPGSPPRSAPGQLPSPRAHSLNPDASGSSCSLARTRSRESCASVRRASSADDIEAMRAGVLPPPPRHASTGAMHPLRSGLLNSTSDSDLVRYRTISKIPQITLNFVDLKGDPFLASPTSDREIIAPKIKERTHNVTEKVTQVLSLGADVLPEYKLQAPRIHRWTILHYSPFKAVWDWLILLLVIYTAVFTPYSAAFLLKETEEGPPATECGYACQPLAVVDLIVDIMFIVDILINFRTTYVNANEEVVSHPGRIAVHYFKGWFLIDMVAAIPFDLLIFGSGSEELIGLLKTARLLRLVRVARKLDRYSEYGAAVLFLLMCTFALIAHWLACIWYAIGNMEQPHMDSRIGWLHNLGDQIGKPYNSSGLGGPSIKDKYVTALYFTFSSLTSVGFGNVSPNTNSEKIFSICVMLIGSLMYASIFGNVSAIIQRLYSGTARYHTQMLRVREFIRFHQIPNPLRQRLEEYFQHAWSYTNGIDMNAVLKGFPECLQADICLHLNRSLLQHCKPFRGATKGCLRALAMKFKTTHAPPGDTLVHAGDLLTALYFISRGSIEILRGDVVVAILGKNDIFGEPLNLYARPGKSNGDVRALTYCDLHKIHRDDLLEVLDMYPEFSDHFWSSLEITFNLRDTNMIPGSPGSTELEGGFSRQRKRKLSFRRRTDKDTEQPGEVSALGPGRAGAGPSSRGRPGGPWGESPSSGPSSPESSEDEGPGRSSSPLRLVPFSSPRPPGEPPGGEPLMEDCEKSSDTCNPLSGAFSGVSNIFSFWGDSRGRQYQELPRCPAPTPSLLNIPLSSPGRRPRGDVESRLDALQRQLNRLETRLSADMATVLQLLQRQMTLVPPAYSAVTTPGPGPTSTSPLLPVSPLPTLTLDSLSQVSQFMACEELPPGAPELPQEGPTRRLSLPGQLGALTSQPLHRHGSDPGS
row,SMILES,"hERG current change (%, negative = inhibition) at 1uM [%]"
1,Cc1ccc(C(=O)N2CCN(c3ncccn3)CC2)c(C)c1,14.7
2,Cc1ccsc1C(=O)N1CCCC(CCC(=O)NCc2ccc(F)c(F)c2)C1 (stereo not drawn),1.22
3,Cc1ccc(-n2c(C)cc(/C([O-])=C(/C(=S)Nc3ccc(F)c(Cl)c3)[n+]3ccccc3)c2C)cc1,16.4
4,COCCN(C(=S)Nc1ccc(Cl)cc1OC)C1CCN(C(C)=O)CC1,1.97
5,Cc1ccc(N2C(=O)c3ccc(C(=O)N4CCN(Cc5ccccc5)CC4)cc3C2=O)cc1,4.4
6,O=C(CC(c1ccccc1)c1ccccc1)NCc1cccnc1,3.99
7,CC(C)n1cc(/C=C2/SC(=O)N(CC(=O)Nc3ccc4c(c3)OCO4)C2=O)c2ccccc21,2.03
8,COc1ccccc1C(=O)C1CCCN(C(=O)CCc2ccccn2)C1 (stereo not drawn),-3.64
9,O=C(c1cc([N+](=O)[O-])ccc1N1CCCCC1)N1CCc2ccccc21,8.63
10,COCCn1c(SCC(=O)Nc2ccc(F)cc2)nc2c(oc3ccccc32)c1=O,1.63
11,COc1ccc(NC(=O)Nc2c(C)noc2-c2ccccc2)cc1,15.3
12,CC(=O)N1N=C(c2ccco2)CC1c1cc2cc(C)ccc2nc1Cl (stereo not drawn),6.38
13,NC(=O)CC(NC(=O)c1ccccc1)c1ccc(NCc2ccc(F)c(F)c2)c([N+](=O)[O-])c1 (stereo not drawn),13.1
14,Cc1nc2cc(C(=O)NCc3ccc4c(c3)OCO4)ccc2n1-c1ccc(Br)cc1,-2.13
15,COC(=O)c1ccc(NC(=O)C(=O)N2CCN(C(=S)Nc3cccc(C)c3C)CC2)cc1,10.4
16,Cc1c(NC(=O)Nc2ccccc2)c(=O)n(-c2ccccc2)n1C,6.6
17,C=CCC(NCc1ccccc1)c1ccco1 (stereo not drawn),6.67
18,O=C1CC(NC(=O)C(F)(F)F)c2cc3c(cc21)OCO3 (stereo not drawn),8.85
19,CCc1cc(=O)oc2c3c(cc(OCC(=O)NC4CC4)c12)OC(C)(C)CC3,-8.42
20,O=C(CSc1ccc(-c2ccccn2)nn1)Nc1ccc(F)c(F)c1,-11.2
21,O=C(CCCc1ccccc1)Nc1nnc(C(F)(F)F)s1,-2.47
22,O=C(c1ccc(=O)n(Cc2ccc(Cl)c(Cl)c2)c1)N1CCOCC1,0.148

row,SMILES,"hERG current change (%, negative = inhibition) at 1uM [%]"
1,CCN(Cc1cccs1)C(=O)CN1C(=O)NC(c2ccccc2)(c2ccccc2)C1=O,-3.02
2,CCC(=O)NS(=O)(=O)c1cccnc1Nc1ccccc1Cl,11.3
3,CCOc1ccc2nc(N3CCCC(C(=O)NCCCN4C(C)CCCC4C)C3)sc2c1 (stereo not drawn),-13.6
4,CCOC(=O)c1cnc2nc(SCc3ccccc3Cl)[nH]n2c1=O,12.9
5,COc1ccc(-c2csc(NC(=O)CSc3nc4ccccc4c(=O)[nH]3)n2)cc1,12.1
6,Cc1csc(SCC(=O)Nc2cc(S(=O)(=O)N(C)C)ccc2C)n1,13.7
7,CC(=O)c1c(C)nc2sc3c(=N)n(N)cnc3c2c1-c1ccc(Cl)cc1,1.1
8,O=C(CN1C(=O)C2CC=CCC2C1=O)Nc1cc(C(F)(F)F)ccc1N1CCCC1 (stereo not drawn),-10.7
9,CCCC(=O)Nc1nnc(-c2ccco2)s1,2.66
10,CC(=O)Nc1ccc(NC(=O)C2CC(=O)N(c3cccc(Cl)c3)C2)cc1 (stereo not drawn),15
11,Cc1ccc(C)c(Nc2c([N+](=O)[O-])cc(C(=O)N3CC(=O)Nc4ccccc43)cc2[N+](=O)[O-])c1,16.9
12,CCCCN(C)CCCNC(=O)CCn1nc(-c2ccccc2)ccc1=O,-12
13,CC1CCN(C(=O)c2[nH]cnc2C(=O)Nc2nccs2)CC1,16.1
14,Cc1ccc(C)c(OCC(=O)Nc2nc3ccc([N+](=O)[O-])cc3s2)c1C,5.59
15,Cc1c(N2C(=O)SC(CC(=O)O)C2=O)c(=O)n(-c2ccccc2)n1C (stereo not drawn),10
16,CC(C)OC(=O)c1ccccc1C(=O)c1ccc(N)c([N+](=O)[O-])c1,8.42
17,O=C(NCc1ccccn1)c1ccc2c(c1)N(Cc1ccccc1)CCS2,7.4
18,COc1ccc(Br)cc1C(=O)Nc1nnn(C)n1,8.9
19,CCCS(=O)(=O)c1nc(S(=O)(=O)c2ccc(C)cc2)c(N2CCCC(C)C2)s1 (stereo not drawn),9.79
20,O=C(NNC(=O)c1ccccc1[N+](=O)[O-])c1ccco1,17.8
21,COc1ccc(-c2cn(-c3ccc(C)cc3C)c(=S)[nH]2)cc1OC,12.1
22,C=CCn1c(=O)c2c(nc3n2CCCN3CCc2ccc(OC)c(OC)c2)n(C)c1=O,-47.3

row,SMILES,"hERG current change (%, negative = inhibition) at 1uM [%]"
1,Cc1onc(-c2ccccc2)c1C(=O)OCC(=O)NC(=O)c1ccccc1,4.83
2,O=C(COC(=O)CCSc1ccccc1)NCc1ccccc1,5.72
3,Cc1ccc(C)c(N=Nc2ccc(O)c3ncccc23)c1,14.9
4,O=c1[nH]c(=O)n(Cc2ccco2)c(O)c1C=NCc1cccs1,11.2
5,CCN(CC(=O)NCc1ccc(F)cc1)C(=O)/C=C/c1ccc(S(=O)(=O)N(CC)CC)cc1,4.43
6,Cc1ccccc1C(=O)Nc1ccc2nc3n(c(=O)c2c1)CCC3,7.13
7,COc1cccc(Cn2nnc(C(=O)NCc3ccc(F)cc3)c2N)c1,8.23
8,Cc1cc2c(s1)c1cnn(CC(=O)NCCc3ccccc3)c(=O)c1n2C,2.17
9,O=C(N/N=C/c1cc([N+](=O)[O-])ccc1O)C1C2CCCCC21 (stereo not drawn),13
10,O=C(Cn1ncc2c1-c1ccccc1OC2)Nc1ccc(Cl)cn1,-12.7
11,O=C(NCCc1ccco1)C(=O)NCC1OCCCN1S(=O)(=O)c1cc(F)ccc1F (stereo not drawn),4.93
12,CC1Oc2ccccc2N(Cc2ccccc2Cl)C1=O (stereo not drawn),22.9
13,CS(=O)(=O)c1ccccc1-c1nc(-c2cc(C(F)(F)F)cc(C(F)(F)F)c2)no1,3.75
14,Cc1cccc(C(=O)NC2CCN(S(=O)(=O)c3ccccc3F)CC2)c1,10.7
15,Cc1ccc(SCc2cc(=O)[nH]c(Nc3nc(C)c4ccccc4n3)n2)cc1,8.32
16,O=C1/C(=C/c2ccc(F)cc2)CCC1C1CCCC1 (stereo not drawn),6.15
17,Cc1ccc(S(=O)(=O)C(CCC(=O)c2ccc(Cl)cc2)C(N)=O)cc1 (stereo not drawn),-2.59
18,CCOc1ccc2nc(SCC(=O)NC3CC3)sc2c1,2.93
19,COc1ccc(S(=O)(=O)N(C)c2ccc(C(=O)N3CCCC3)cc2)cc1,10.8
20,Cc1nnc(SCC(=O)NC(C)(C)C)n1NCc1ccc(N(C)C)cc1,21.7
21,CCOc1ccc(-n2c(O)c(N=Nc3c(C)n(C)n(-c4ccccc4)c3=O)c(=O)[nH]c2=O)cc1,11.9
22,CC1(C)C(=O)Nc2ccccc2N1C(=O)COC(=O)C12CC3CC(CC(O)(C3)C1)C2,17.7

row,SMILES,"hERG current change (%, negative = inhibition) at 1uM [%]"
1,Cn1cc(CN2CCC(n3nccc3NC(=O)CCCc3ccccc3)CC2)cn1,16.5
2,Cc1cc(C)cc(N)c1,3.68
3,Cc1ncoc1C(=O)Nc1ccc2c(c1)OCCO2,-0.892
4,Cc1[nH]c2c(C(F)(F)F)cccc2c1CCN.Cl,4.57
5,O=C(NNc1c2ccccc2nc2ccccc12)c1ccccc1O,10.4
6,CCOC(=O)CCSc1nc(C)cc(C(F)(F)F)c1C#N,13.4
7,Cc1ccc2onc(CC(=O)O)c2c1,16
8,Cc1ccc2nc(Nc3nc(CSc4nc5ccccc5s4)cc(=O)[nH]3)nc(C)c2c1,20.5
9,CC(=O)CCSc1ncnc2sc(-c3ccccc3)cc12,21
10,CC(=O)c1cccc(NC(=O)/C(=C\c2cccnc2)NC(=O)c2ccco2)c1,5.81
11,COc1ccc(/C=C2\SC(=S)N(CCCC(=O)Nc3ccccn3)C2=O)cc1OC,17.2
12,COc1ccccc1N=C1SC(C(=O)Nc2ccc(F)cc2)CC(=O)N1C (stereo not drawn),-14.8
13,CCN(C(=O)c1cc2c(=O)[nH]c3ccc(C)cc3c2s1)c1ccccc1F,8.96
14,CCC(=O)Nc1cccc(NC(=O)COc2ccc(OC)cc2)c1,-4.41
15,O=C(O)c1cc(O)ccc1N=Nc1ccccc1,17.6
16,O=C1/C(=C/c2cccs2)SC(=S)N1c1cccc(O)c1,12.5
17,CC(=O)NCCC(=O)Nc1nc(-c2ccc3c(c2)OCCO3)cs1,-0.992
18,CC(C)OC(=O)c1c(NC(=O)CCC(=O)O)sc2c1CCCCC2,5.97
19,O=C(Nc1ccccc1)c1ccc(-n2cnnn2)cc1,8.08
20,CC(=O)NS(=O)(=O)c1ccc(NC(=S)Nc2ccccc2)cc1,10
21,COc1cccc(/C=N/NC(=O)C(=O)NCc2cccnc2)c1O,3.36
